# Measured values from the supplement of paper PMC8728848.
# The list shows a part of the results.
# B1: Als3-2 (Candida albicans) (protein)
# chain: KTITGVFNSFNSLTWSNAATYNYKGPGTPTWNAVLGWSLDGTSASPGDTFTLNMPCVFKFTTSQTSVDLTAHGVKYATCQFQAGEEFMTFSTLTCTVSNTLTPSIKALGTVTLPLAFNVGGTGSSVDLEDSKCFTAGTNTVTFNDGGKKISINVDFERSNVDPKGYLTD
# Legend:
# Assay in all cases: glycan array binding signal (z-score within array); higher = stronger binding
# Conditions in all cases: glycan notation: IUPAC condensed, linker removed
# [1] = target: Fuc(a1-2)[GalNAc(a1-3)]Gal(b1-3)GlcNAc(b1-6)GalNAc
# Summary of the method: (§1)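 Glycan array data were curated from 3228 arrays in the Consortium for Functional Glycomics database and kept only where the protein sequence was available. Glycan names were converted to IUPAC-condensed notation, and columns mapping to the same glycan were averaged. The binding signal is a within-array Z-score, averaged across arrays of the same protein sequence at different concentrations or buffers and across linkers. Negative Z-scores can be read as non-binding.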
# [2] = target: Fuc(a1-2)[GalNAc(a1-3)]Gal(b1-4)Glc
# Summary of the method: as §1
# [3] = target: Fuc(a1-2)[GalNAc(a1-3)]Gal(b1-4)GlcNAc
# Summary of the method: as §1
# [4] = target: Fuc(a1-2)[GalNAc(a1-3)]Gal(b1-4)GlcNAc(b1-2)Man
# Summary of the method: as §1
# [5] = target: Fuc(a1-2)[GalNAc(a1-3)]Gal(b1-4)GlcNAc(b1-2)Man(a1-3)[Fuc(a1-2)[GalNAc(a1-3)]Gal(b1-4)GlcNAc(b1-2)Man(a1-6)]Man(b1-4)GlcNAc(b1-4)GlcNAc
# Summary of the method: as §1
# [6] = target: Fuc(a1-2)[GalNAc(a1-3)]Gal(b1-4)GlcNAc(b1-2)Man(a1-3)[Fuc(a1-2)[GalNAc(a1-3)]Gal(b1-4)GlcNAc(b1-2)Man(a1-6)]Man(b1-4)GlcNAc(b1-4)[Fuc(a1-6)]GlcNAc
# Summary of the method: as §1
# [7] = target: Fuc(a1-2)[GalNAc(a1-3)]Gal(b1-4)GlcNAc(b1-3)Gal(b1-4)GlcNAc
# Summary of the method: as §1
# [8] = target: Fuc(a1-2)[GalNAc(a1-3)]Gal(b1-4)GlcNAc(b1-3)Gal(b1-4)GlcNAc(b1-3)Gal(b1-4)GlcNAc
# Summary of the method: as §1
# [9] = target: Fuc(a1-2)[GalNAc(a1-3)]Gal(b1-4)GlcNAc(b1-3)GalNAc
# Summary of the method: as §1
# [10] = target: Fuc(a1-2)[GalNAc(a1-3)]Gal(b1-4)GlcNAc(b1-3)[Fuc(a1-2)[GalNAc(a1-3)]Gal(b1-4)GlcNAc(b1-6)]GalNAc
# Summary of the method: as §1
# [11] = target: Fuc(a1-2)[GalNAc(a1-3)]Gal(b1-4)GlcNAc(b1-6)GalNAc
# Summary of the method: as §1
# [12] = target: Fuc(a1-2)[GalNAc(a1-3)]Gal(b1-4)[Fuc(a1-3)]GlcNAc
# Summary of the method: as §1
# [13] = target: Fuc(a1-2)[GalNAc(a1-3)]Gal(b1-4)[Fuc(a1-3)]GlcNAc(b1-3)GalNAc
# Summary of the method: as §1
# [14] = target: Fuc(a1-2)[GalNAc(a1-4)]Gal(b1-4)GlcNAc
# Summary of the method: as §1
# [15] = target: Fuc(a1-2)[GalNAc(b1-3)]Gal
# Summary of the method: as §1
# [16] = target: Fuc(a1-3)GlcNAc
# Summary of the method: as §1
# [17] = target: Fuc(a1-3)[Gal(b1-4)]Glc6S
# Summary of the method: as §1
# [18] = target: Fuc(a1-3)[Gal(b1-4)]GlcNAc
# Summary of the method: as §1
# [19] = target: Fuc(a1-3)[Gal(b1-4)]GlcNAc(b1-2)Man
# Summary of the method: as §1
# [20] = target: Fuc(a1-3)[Gal(b1-4)]GlcNAc(b1-2)Man(a1-3)[Fuc(a1-3)[Gal(b1-4)]GlcNAc(b1-2)Man(a1-6)]Man(b1-4)GlcNAc(b1-4)GlcNAc
# Summary of the method: as §1
# [21] = target: Fuc(a1-3)[Gal(b1-4)]GlcNAc(b1-2)Man(a1-3)[Fuc(a1-3)[Gal(b1-4)]GlcNAc(b1-2)Man(a1-6)]Man(b1-4)GlcNAc(b1-4)[Fuc(a1-6)]GlcNAc
# Summary of the method: as §1
# [22] = target: Fuc(a1-3)[Gal(b1-4)]GlcNAc(b1-3)Gal(b1-3)[Fuc(a1-4)]GlcNAc
# Summary of the method: as §1
# [23] = target: Fuc(a1-3)[Gal(b1-4)]GlcNAc(b1-3)Gal(b1-4)[Fuc(a1-3)]GlcNAc
# Summary of the method: as §1
# [24] = target: Fuc(a1-3)[Gal(b1-4)]GlcNAc(b1-3)Gal(b1-4)[Fuc(a1-3)]GlcNAc(b1-3)Gal(b1-4)[Fuc(a1-3)]GlcNAc
# Summary of the method: as §1
# [25] = target: Fuc(a1-3)[Gal(b1-4)]GlcNAc(b1-3)GalNAc
# Summary of the method: as §1
# [26] = target: Fuc(a1-3)[Gal(b1-4)]GlcNAc(b1-6)GalNAc
# Summary of the method: as §1
# [27] = target: Fuc(a1-3)[Gal(b1-4)]GlcNAc(b1-6)[Gal(b1-3)GlcNAc(b1-3)]Gal(b1-4)Glc
# Summary of the method: as §1
# [28] = target: Fuc(a1-3)[Gal(b1-4)]GlcNAc6S
# Summary of the method: as §1
# [29] = target: Fuc(a1-3)[Gal3S(b1-4)]Glc
# Summary of the method: as §1
# [30] = target: Fuc(a1-3)[Gal3S(b1-4)]GlcNAc
# Summary of the method: as §1
# [31] = target: Fuc(a1-3)[Gal3S(b1-4)]GlcNAc6S
# Summary of the method: as §1
# [32] = target: Fuc(a1-3)[GalNAc(b1-4)]GlcNAc
# Summary of the method: as §1
# [33] = target: Fuc(a1-3)[GalNAc(b1-4)]GlcNAc6S
# Summary of the method: as §1
# [34] = target: Fuc(a1-4)GlcNAc
# Summary of the method: as §1
# [35] = target: Fuc(b1-3)GlcNAc
# Summary of the method: as §1
# [36] = target: Gal(a1-2)Gal
# Summary of the method: as §1
# [37] = target: Gal(a1-3)Gal
# Summary of the method: as §1
binder,measurement,setting,value
B1,glycan array binding signal (z-score),[1],-0.624
same,glycan array binding signal (z-score),[2],-0.679
same,glycan array binding signal (z-score),[3],-0.711
same,glycan array binding signal (z-score),[4],-0.4
same,glycan array binding signal (z-score),[5],-0.232
same,glycan array binding signal (z-score),[6],-0.622
same,glycan array binding signal (z-score),[7],-0.597
same,glycan array binding signal (z-score),[8],0.614
same,glycan array binding signal (z-score),[9],-0.444
same,glycan array binding signal (z-score),[10],-0.495
same,glycan array binding signal (z-score),[11],0.324
same,glycan array binding signal (z-score),[12],-0.465
same,glycan array binding signal (z-score),[13],2.21
same,glycan array binding signal (z-score),[14],-0.444
same,glycan array binding signal (z-score),[15],-0.226
same,glycan array binding signal (z-score),[16],-0.39
same,glycan array binding signal (z-score),[17],0.576
same,glycan array binding signal (z-score),[18],-0.269
same,glycan array binding signal (z-score),[19],-0.549
same,glycan array binding signal (z-score),[20],0.525
same,glycan array binding signal (z-score),[21],-0.462
same,glycan array binding signal (z-score),[22],3.23
same,glycan array binding signal (z-score),[23],-0.091
same,glycan array binding signal (z-score),[24],-0.374
same,glycan array binding signal (z-score),[25],-0.173
same,glycan array binding signal (z-score),[26],-0.391
same,glycan array binding signal (z-score),[27],-0.313
same,glycan array binding signal (z-score),[28],2.13
same,glycan array binding signal (z-score),[29],-0.64
same,glycan array binding signal (z-score),[30],0.84
same,glycan array binding signal (z-score),[31],0.07
same,glycan array binding signal (z-score),[32],0.467
same,glycan array binding signal (z-score),[33],0.076
same,glycan array binding signal (z-score),[34],-0.199
same,glycan array binding signal (z-score),[35],-0.35
same,glycan array binding signal (z-score),[36],-0.51
same,glycan array binding signal (z-score),[37],-0.231
